“And” between values parts separate entries of the source, which are not always exact repeats. Equal entries are not always repeated. Inconclusive results, whose numbers are uncertain, are shown with a selection of clear calls. For part of these data: Where the call is inconclusive, the potency comes from a doubtful curve fit. The source made the active and inactive calls. Unless noted, calls follow the shape of the dose curve; as a rule, active = well fitted curve in the direction sought with a large enough effect in the repeat runs; inconclusive = weak or mixed curves; inactive = no such curve, though single readings can be large; an effect the other way counts as inactive or inconclusive.
How the values were obtained:
[1] = qHTS assay for small molecule agonists of the p53 signaling pathway (AID 651631; calls by dose curve; also: nearly all actives have a fitted effect of over 15% in size; also: potency is read from the fitted curve at half-maximal effect; as to activation: % is scaled to controls: 0 for no effect and ±100 for the full control effect); conditions: HCT-116 p53RE-bla reporter, beta-lactamase FRET ratio, 16 h; activation: at 73.3 µM (top of the series) unless noted
Summary of the method: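 Readout was fluorescence from the LiveBLAzer FRET substrate, applied for 2 h at room temperature after 16 h compound exposure at 37 °C. Cells were the p53RE-bla HCT-116 line, with beta-lactamase driven by p53 response elements.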

[2] = qHTS assay for small molecule disruptors of the mitochondrial membrane potential (AID 720635); conditions: HepG2 mitochondrial membrane potential, Mito-MPS dye ratio; also: potency is read from the fitted curve at half-maximal effect; as to ratio activity, negative = MMP loss: % is scaled to controls: 0 for no effect and ±100 for the full control effect
Summary of the method: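 HepG2 cells exposed to compound 1 hr at 37C, then Mito-MPS dye 30 min. Ratio read of aggregate (540/590 nm) versus monomer (490/535 nm) fluorescence.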

[3] = biological target: Glucocorticoid receptor (Homo sapiens) (UniProt P04150); experiment: qHTS assay to identify small molecule agonists of the glucocorticoid receptor (GR) signaling pathway (AID 720691; active = well fitted activation curve with a large enough effect in the signal ratio in the repeat runs, not every such curve was filed as active; inconclusive = weak or mixed curves, or effect the other way; inactive = no such curve, though single readings can be large or run the other way; the % refers to the signal ratio; also: % is scaled to controls: 0 for no effect and ±100 for the full control effect); conditions: GR-bla HeLa, beta-lactamase reporter ratio, 18 h; activation: at 62.4 µM (top of the series) unless noted
UniProt P04150, sequence (P04150 whole entry, looked up): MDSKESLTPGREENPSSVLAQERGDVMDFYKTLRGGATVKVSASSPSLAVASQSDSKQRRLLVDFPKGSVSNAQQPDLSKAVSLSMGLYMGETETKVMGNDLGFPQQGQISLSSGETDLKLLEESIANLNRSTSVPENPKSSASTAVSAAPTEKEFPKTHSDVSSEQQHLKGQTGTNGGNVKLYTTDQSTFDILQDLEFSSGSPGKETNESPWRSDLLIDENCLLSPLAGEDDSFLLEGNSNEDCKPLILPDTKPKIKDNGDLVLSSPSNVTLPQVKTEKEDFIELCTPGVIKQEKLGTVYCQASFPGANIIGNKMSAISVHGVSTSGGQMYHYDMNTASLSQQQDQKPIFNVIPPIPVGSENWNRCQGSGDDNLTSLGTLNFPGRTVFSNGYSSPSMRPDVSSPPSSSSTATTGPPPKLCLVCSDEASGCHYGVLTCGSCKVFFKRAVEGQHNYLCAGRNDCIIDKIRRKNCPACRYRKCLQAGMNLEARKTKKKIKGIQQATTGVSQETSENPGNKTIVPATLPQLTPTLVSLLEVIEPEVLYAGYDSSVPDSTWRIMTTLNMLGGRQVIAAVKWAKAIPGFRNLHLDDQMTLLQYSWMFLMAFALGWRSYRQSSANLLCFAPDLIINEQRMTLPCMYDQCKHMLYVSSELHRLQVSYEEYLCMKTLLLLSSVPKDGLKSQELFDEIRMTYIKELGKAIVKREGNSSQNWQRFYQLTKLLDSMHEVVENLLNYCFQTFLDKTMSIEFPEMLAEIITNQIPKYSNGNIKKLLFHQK
Summary of the method: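 Cells: GR-bla HeLa, endogenous GR with stably integrated GRE-beta-lactamase reporter. Treatment 18 h, 37 C, compounds delivered in DMSO. Detection via LiveBLAzer B/G FRET substrate, 2 h RT, fluorescence intensity.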

[4] = biological target: Glucocorticoid receptor (Homo sapiens) (UniProt P04150); experiment: qHTS assay to identify small molecule antagonists of the glucocorticoid receptor (GR) signaling pathway (AID 720692; active = well fitted inhibition curve with a large enough effect in the signal ratio in the repeat runs, not every such curve was filed as active; inconclusive = weak or mixed curves, or effect the other way; inactive = no such curve, though single readings can be large or run the other way; the % refers to the signal ratio; also: potency is read from the fitted curve at half-maximal effect; as to activity change, negative = inhibition: % is scaled to controls: 0 for no effect and ±100 for the full control effect); conditions: GR-bla HeLa, beta-lactamase FRET ratio, dexamethasone-stimulated, 18 h; activity change, negative = inhibition: at 58.5 µM (top of the series) unless noted
Summary of the method: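 Quantitative HTS in antagonist format: HeLa cells expressing endogenous GR and a stably integrated GRE-bla reporter, stimulated with 5 nM dexamethasone (final) alongside test compounds for 18 h.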

[5] = qHTS assay for identifying genotoxic compounds that show differential cytotoxicity against isogenic chicken DT40 cell lines with known DNA damage response pathways - wild type cell line (AID 743012); conditions: DT40 wild type chicken cells viability, CellTiter-Glo, 40 h; activity change, negative = cytotoxicity: at 68.4 µM (top of the series) unless noted; also: potency is read from the fitted curve at half-maximal effect; nearly all actives have a fitted effect of over 60% in size
Summary of the method: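 Luminescent ATP viability signal (CellTiter-Glo, 30 min RT) recorded after wild type DT40 cells were incubated with compounds for 40 h at 37 C/5% CO2.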

[6] = qHTS assay for identifying genotoxic compounds that show differential cytotoxicity against isogenic chicken DT40 cell lines with known DNA damage response pathways - Rad54/Ku70 mutant cell line (AID 743015); conditions: DT40 Rad54/Ku70 mutant viability, CellTiter-Glo, 40 h; activity change, negative = cytotoxicity: at 66.8 µM (top of the series) unless noted; also: nearly all actives have a fitted effect of over 60% in size; also: potency is read from the fitted curve at half-maximal effect
[7] = qHTS assay to test for compound auto fluorescence at 460 nm (blue) in HepG2 cell free culture (AID 720685); also: potency is read from the fitted curve at half-maximal effect
Summary of the method: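 Cell-free plates of MEM plus 10% FBS received 23 nL compound or DMSO vehicle; blue-channel (405/460 nm) intensity scored against triamterene as reference fluorophore.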

[8] = qHTS assay to test for compound auto fluorescence at 460 nm (blue) in HepG2 cells (AID 720687); also: potency is read from the fitted curve at half-maximal effect
Summary of the method: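 HepG2 cells in MEM with 10% FBS, attached overnight at 37 C, were exposed to compound or DMSO for 1 hr at 37 C, 5% CO2. Blue fluorescence was read at 405/460 nm, with triamterene as reference fluorophore.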

[9] = qHTS assay for identifying genotoxic compounds that show differential cytotoxicity against isogenic chicken DT40 cell lines with known DNA damage response pathways - Rev3 mutant cell line (AID 743014); conditions: chicken DT40 Rev3-/- viability, CellTiter-Glo, 40 h; activity, negative = cytotoxicity: at 68.4 µM (top of the series) unless noted; also: potency is read from the fitted curve at half-maximal effect; nearly all actives have a fitted effect of over 55% in size
[10] = qHTS assay to identify small molecule antagonists of the glucocorticoid receptor (GR) signaling pathway - cell viability counter screen (AID 720693); conditions: GR-bla HeLa viability, CellTiter-Glo luminescence, 18 h, with 5 nM dexamethasone present; viability change, negative = cytotoxic: at 58.5 µM (top of the series) unless noted; also: potency is read from the fitted curve at half-maximal effect; nearly all actives have a fitted effect of over 55% in size
[11] = ratio activity, negative = MMP loss: at 83.2 µM (top of the series) unless noted
Tags tell the direction and shape of the fitted curve or compound fluorescence and quenching.

## N#CCC#N
[1]
  Potency: inconclusive: 10.9 µM [activator, full curve, poor fit]
[2]; [11]
  Potency: inconclusive: 21.7 µM [inhibitor, partial curve]
[3]
  activation: inconclusive: 8.58%
[4]
  Potency: inactive
[5]
  Potency: inconclusive: 68.6 µM [cytotoxic, single point]
[6]
  Potency: inconclusive: 68.6 µM [cytotoxic, single point]

## CCCCCCCCCCOC(=O)c1ccccc1C(=O)OCCCCCCCCCC
[1]
  Potency: inconclusive: 6.11 µM [cytotoxic, partial curve, poor fit]
[2]; [11]
  Potency: inactive
[4]
  activity change, negative = inhibition: inconclusive: 22.3%

## Cc1c(Cl)c(=O)oc2cc(OP(=O)(OCCCl)OCCCl)ccc12
[1]
  Potency: inconclusive: 29.8 µM [activator, partial curve]
[2]; [11]
  Potency: inconclusive: 33.5 µM [activator, single point]
[7]
  Potency: inconclusive: 14.1 µM [fluorescent, partial curve]
[8]
  Potency: inconclusive: 14.1 µM [fluorescent, single point]
[4]
  Potency: inactive
[5]
  Potency: inconclusive: 33.5 µM [cytotoxic, single point]
[9]
  Potency: inconclusive: 33.5 µM [cytotoxic, single point]
[6]
  Potency: inconclusive: 33.5 µM [cytotoxic, single point]

## COc1cc(CCN)cc(OC)c1OC
[1]
  Potency: inconclusive: 33.3 µM [activator, single point]
[2]; [11]
  Potency: inactive
[3]
  Potency: inactive

## CCOP(=S)(OCC)OP(=S)(OCC)OCC
[1]
  activation: inconclusive: -1.55% [at 95.1 µM]
[2]; [11]
  Potency: inconclusive: 31.4 µM [inhibitor, partial curve]
  ratio activity, negative = MMP loss: inconclusive: -33.8%
[4]
  Potency: inactive
[5]
  Potency: inconclusive: 31.4 µM [rising, partial curve]

## COC(=O)c1cncn1C(C)c1ccccc1 (stereo not given)
[1]
  Potency: inactive
[2]; [11]
  ratio activity, negative = MMP loss: inconclusive: -17.4%

## CCOS(=O)(=O)OCC
[1]
  Potency: inconclusive: 54.5 µM [activator, partial curve]
[2]; [11]
  Potency: inactive
[3]
  activation: inconclusive: 0.123% [phenotype inactive]

## c1ccc(N=Nc2ccccc2)cc1
[1]
  Potency: inconclusive: 54.5 µM [falling, partial curve]
[2]; [11]
  Potency: inconclusive: 69.9 µM [inhibitor, single point] and inactive
[4]
  Potency: inactive

## O=C(Nc1ccccc1)Nc1cnns1
[1]
  Potency: inconclusive: 76.9 µM [activator, partial curve, poor fit]
[2]; [11]
  Potency: active: 3.06 µM
[3]
  activation: inconclusive: -11%

## Nc1cccc2ccccc12
[1]
  activation: inconclusive: 6.54% [at 95.1 µM]
[2]; [11]
  Potency: inconclusive: 68.6 µM [fluorescent, partial curve, poor fit]
  ratio activity, negative = MMP loss: inconclusive: 37.9% [at 95.3 µM]

## C[C@]12C=CC(=O)C=C1CC[C@@H]1[C@@H]2CC[C@@]2(C)[C@H]1CC[C@]2(C)O
[1]
  Potency: inconclusive: 29.8 µM [activator]
[2]; [11]
  Potency: inactive

## OCCOc1ccccc1
[1]
  activation: inconclusive: 1.58%
[2]; at 83.2 µM (top of the series)
  ratio activity, negative = MMP loss: inactive: 13.2% and inactive: 6.79%
[2]; at 95.3 µM (top of the series)
  ratio activity, negative = MMP loss: inactive: 12.9%
[2]; [11]
  ratio activity, negative = MMP loss: inconclusive: 15.9%
[6]
  Potency: inactive

## C=CC(C)(CCC=C(C)C)OC(=O)c1ccccc1N (stereo not given)
[1]
  Potency: inactive
[2]; [11]
  ratio activity, negative = MMP loss: inconclusive: 15% [at 95.3 µM]
[4]
  activity change, negative = inhibition: inconclusive: 35.4% [at 78.9 µM]

## O=[N+]([O-])c1cc(Cl)c(Cl)c(Cl)c1
[1]
  Potency: inconclusive: 68 µM [activator, single point]
[2]; [11]
  ratio activity, negative = MMP loss: inconclusive: 0.106%

## CC(C)(OO)c1ccccc1
[1]
  activation: inconclusive: -1.72%
[2]; [11]
  Potency: inactive
[3]
  Potency: inactive
[4]
  activity change, negative = inhibition: inconclusive: -15.9%
[10]
  Potency: inconclusive: 54.9 µM [cytotoxic, single point]

## CC1(C)CC/C(=C/c2ccc(Cl)cc2)C1(O)Cn1cncn1 (stereo not given)
[1]
  Potency: inconclusive: 24.2 µM [fluorescent, partial curve, poor fit]
[2]; [11]
  Potency: inconclusive: 2.42 µM [activator]
[4]
  Potency: inconclusive: 54.6 µM [fluorescent, partial curve, poor fit]

## CCN(CC)C(=O)/C(Cl)=C(\C)OP(=O)(OC)OC
[1]
  activation: inconclusive: 2.12%
[2]; [11]
  Potency: inconclusive: 68.6 µM [fluorescent]
  ratio activity, negative = MMP loss: inconclusive: -21.6%

## CC(C)NC(C)C
[1]
  Potency: inactive
[2]; [11]
  Potency: inactive

## Cc1cccc(N)c1C
[1]
  Potency: inactive
[2]; at 83.2 µM (top of the series)
  ratio activity, negative = MMP loss: inconclusive: 9.97%
[2]; at 95.3 µM (top of the series)
  ratio activity, negative = MMP loss: inconclusive: -4.7%
[4]
  Potency: inactive
[5]
  Potency: inconclusive: 68.6 µM [cytotoxic, single point]
[6]
  Potency: inconclusive: 68.6 µM [cytotoxic, single point]

## CC1OC(C)OC(C)O1 (stereo not given)
[1]
  Potency: inactive and inconclusive: 15 µM [activator, partial curve, poor fit]
[2]; at 83.2 µM (top of the series)
  ratio activity, negative = MMP loss: inactive: -6.34% and inactive: 5.44%
[2]; [11]
  ratio activity, negative = MMP loss: inconclusive: -30.3%
[9]
  Potency: inconclusive: 13.3 µM [rising, partial curve, poor fit]
[6]
  Potency: inconclusive: 61.1 µM [cytotoxic, single point]
